Experimental data: PubChem BioAssay AID1345083 (National Center for Advancing Translational Sciences (NCATS), 2018)
In all, about 94,000 compounds went through this assay and about 6,200 (6.6%) were called active. The inconclusive results got no clear call from the source; some entries with a clear call stand among them for comparison. The call rests on the fitted dose curve; in most records, active means well fitted inhibition curve with a large enough effect; inconclusive means small, poorly fitted or top-dose-only effect; inactive means flat fitted curve, though single readings scatter. A potency beside an inconclusive call is a rough fit, not a confirmed value.

Experiment: Cytotoxic Profiling in HEK 293 Cell Line of Diverse Libraries Using Quantitative High-Throughput Screening; further: nearly all actives have a fitted effect of over 60% in size
Conditions: HEK 293 viability, ATP luminescence (CellTiter-Glo), 48-72 h; series mostly up to 115 µM
How it was run: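 Cells seeded first (HEK 293, 250 cells/well), then compound added by pintool. Incubation ran 48 or 72 hr at 37 degree Celsius. CellTiter-Glo was added and luminescence imaged after 10 min at room temperature.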
Potency means the concentration at half of the fitted maximal effect; tags describe the fitted curve by direction and shape.

| Compound | Potency |
| --- | --- |
| CNC(=O)[C@@H]1C[C@H](Oc2cccnc2)CN1S(=O)(=O)c1ccc2c(c1)CCC2 | inactive |
| Clc1cccc(CN2CC[C@H](c3nc4ncccc4[nH]3)C2)c1 | inconclusive: 89.1 µM [inhibitor, partial curve, poor fit] |
| CC(=O)N1CCC(C(=O)NCc2nnc3ccc(-c4ccc(C)cc4)nn23)CC1 | inconclusive: 100 µM [inhibitor, single point] |
| O=C(NC1CCCC1)N1CCC(c2noc(-c3ccccc3)n2)C1 (stereo not given) | inconclusive: 50.1 µM [inhibitor, partial curve, poor fit] |
| CN1CCCC1c1nc(C2CN(S(=O)(=O)Cc3cccc(F)c3)C2)no1 (stereo not given) | inactive |
| CN(C)Cc1cn([C@H]2CO[C@H]3[C@@H]2OC[C@H]3OC(=O)Nc2ccc(C(C)(C)C)cc2)nn1 | inconclusive: 100 µM [inhibitor, partial curve, poor fit] |
| COC(=O)CNC(=O)c1nc2cccnc2n(C2CCCC2)c1=O | inactive |
| CCc1cccc(NC(=O)c2ccc3c(c2)N(CC)C2CCCCCN2C3=O)c1 (stereo not given) | active: 31.6 µM |
| O=C(Cc1ccc(F)cc1)N1CCn2c(nn(-c3ccc(F)cc3)c2=O)C1 | inconclusive: 50.1 µM [inhibitor, partial curve, poor fit] |
| Cc1cccc(CCNC(=O)c2noc(-c3ccc4c(c3)OCO4)n2)c1 | inconclusive: 79.4 µM [inhibitor, single point] |
| CCCn1cc(-c2ccnc(NC3CCN(Cc4ccccn4)CC3)n2)c(C)n1 | active: 28.2 µM |
| CCN1C[C@H]2COc3cc(OC)ccc3[C@H]2N(C(=O)c2ccccc2OC)CCC1=O | inactive |
| O=C(NC1CCN(c2cc(-c3ccc(Cl)cc3)[nH]n2)C1)c1ccncc1 (stereo not given) | inconclusive: 50.1 µM [inhibitor, partial curve, poor fit] |
| COc1cccc(-c2cc3c(=O)n(CCNC(=O)c4ccc(Cl)cc4)ccn3n2)c1 | inconclusive: 89.1 µM [inhibitor, single point] |
| CC(=O)Nc1ccc(S(=O)(=O)N2Cc3ccccc3OC3(CCN(C(=O)NC(C)C)CC3)C2)cc1 | inactive |
| COc1ccc(CN2CCOC[C@H]2c2ncc(-c3cccc(F)c3)[nH]2)cc1 | inconclusive: 100 µM [inhibitor, partial curve] |
| O=C(c1ccc(F)cc1)N1CCCC(n2cc(-c3nc(-c4ccccc4)no3)nn2)C1 (stereo not given) | inconclusive: 31.6 µM [inhibitor, partial curve, poor fit] |
| COc1ccc(NC(=O)c2cc3n(n2)CC(c2ccc(Cl)cc2)OC3)cc1 (stereo not given) | inconclusive: 89.1 µM [inhibitor, partial curve, poor fit] |
| COC(=O)CC(NC(=O)N1CCc2nc(-c3ccccc3)[nH]c2C1)c1ccccc1 (stereo not given) | inactive |
| Cc1noc(C)c1[S+](=O)([O-])NC1CCN(c2ccc3nnc(-c4ccccc4)n3n2)CC1 | inconclusive: 50.1 µM [inhibitor, partial curve, poor fit] |
| O=C(Cn1nc2c(cc1=O)CCCCC2)NC1CCCc2c1[nH]c1ccccc21 (stereo not given) | inconclusive: 56.2 µM [inhibitor, partial curve, poor fit] |
| Cc1ccc(-c2cc3c(=O)n(CCNC(=O)Cc4ccsc4)ccn3n2)cc1C | inconclusive: 17.8 µM [inhibitor, full curve, poor fit] |

| Compound | Potency |
| --- | --- |
| CCOc1ccc(C2Cn3nnc(-c4nc(-c5ccncc5)no4)c3CO2)cc1 (stereo not given) | inactive |
| Cc1ccccc1NC(=O)c1cc2cn(C(C)C)cc2s1 | inconclusive: 50.1 µM [inhibitor, partial curve, poor fit] |
| COC[C@@H]1CN(C(=O)Cc2cc(C)no2)C[C@H]1c1ccncc1 | inactive |
| O=C(CC1CCOCC1)NCc1ccc(OC(F)(F)F)cc1 | inconclusive: 89.1 µM [inhibitor, single point] |
| Cn1cc(CC(=O)N2CCCc3ncc(C(=O)Nc4cccnc4)cc32)c2ccccc21 | inconclusive: 89.1 µM [inhibitor, partial curve, poor fit] |
| O=C(CCC1CCN(c2cc(NC3CC3)ncn2)CC1)Nc1ccccc1 | inconclusive: 79.4 µM [inhibitor, partial curve] |
| O=C([C@@H]1C[C@H](F)CN1S(=O)(=O)c1ccccc1)N1CCc2ccccc2C1 | inactive |
| CCOC(=O)Cc1csc(NC(=O)C[C@H]2NC(=O)c3ccccc3NC2=O)n1 | inactive |
| COc1ccc(C(=O)NC2CCN(c3cc(-c4ccc(Cl)cc4)[nH]n3)C2)c(OC)c1 (stereo not given) | active: 44.7 µM |
| O=C(Cc1ccccc1)N1CCN(c2cc(-c3ccccc3)[nH]n2)CC1 | inconclusive: 50.1 µM [inhibitor, partial curve, poor fit] |
| CN1CCCC[C@]2(C[C@H](C(=O)O)[C@H](c3ccccc3)N2C(=O)Cc2ccc(F)cc2)C1=O | inactive |
| COc1ccc(C(=O)NCCc2ncc(C)n2C2CCC2)c(OC)n1 | inconclusive: 56.2 µM [inhibitor, partial curve, poor fit] |
| O=C(C1CCN(c2nccc(Nc3ccccc3F)n2)CC1)N1CCCCC1 | inconclusive: 56.2 µM [inhibitor, partial curve, poor fit] |
| CN1C(=O)C2(CCN(Cc3ccc(C#N)cc3)C2)c2ccccc21 (stereo not given) | inconclusive: 50.1 µM [inhibitor, full curve, poor fit] |
| O=C1COc2ccc(-c3ccncc3)nc2CN1Cc1ccc(C(F)(F)F)cc1 | active: 79.4 µM |
| O=C(Nc1cccc(F)c1)N1CCC(Oc2ccccc2-c2nc(-c3ccncc3)no2)C1 (stereo not given) | inconclusive: 50.1 µM [inhibitor, partial curve, poor fit] |
| CN(C)[S+](=O)([O-])c1ccc2c(c1)OCCN(Cc1ccncc1)C2 | inconclusive: 50.1 µM [inhibitor, partial curve, poor fit] |
| CCCc1noc(-c2cccn3c(CNC(=O)c4ccc(C)cc4)nnc23)n1 | inactive |
| Cc1cc(C(=O)N2CCC(c3noc(-c4ccccc4)n3)C2)n[nH]1 (stereo not given) | inconclusive: 50.1 µM [inhibitor, partial curve, poor fit] |
| COc1ncccc1-c1ccnc(-c2nnc(C)n2-c2ccccc2)c1 | inconclusive: 100 µM [inhibitor, partial curve, poor fit] |
| Cc1ccc([S+](=O)([O-])N2CCCCC23Cc2ccccc2NC3=O)cc1 (stereo not given) | inconclusive: 8.91 µM [inhibitor, partial curve, poor fit] |
| Cc1ccc(CNC(=O)c2nnn3c2COC(c2ccc(C)cc2)C3)cc1 (stereo not given) | inactive |

| Compound | Potency |
| --- | --- |
| COCCOC1CCN(C(C(=O)O)c2cc(C)c(OC)c(C)c2)CC1 (stereo not given) | inactive |
| COCCC1(NC(=O)NC2CCCCC2)CCN(S(C)(=O)=O)CC1 | inactive |
| CC(C)N1Cc2cc(C(=O)Nc3cccc4c3CCCC4)sc2C1 | active: 28.2 µM |
| O=[S+]([O-])(c1cccs1)N1CCCC2(CC(c3cccc(C(F)(F)F)c3)=NO2)C1 (stereo not given) | inconclusive: 56.2 µM [inhibitor, partial curve, poor fit] |
| CC(=O)NC1(C)CCN(Cc2ccc(-c3cccc(C(F)(F)F)c3)cc2)C1 (stereo not given) | active: 50.1 µM |
| COc1ccc(C(=O)N2CCN(c3cc(-c4cccs4)[nH]n3)CC2)cc1 | inconclusive: 56.2 µM [inhibitor, partial curve, poor fit] |
| COc1ccc(-c2noc([C@@H]3CCCN3C(=O)c3ccc(C)cc3)n2)cc1OC | inconclusive: 79.4 µM [inhibitor, partial curve] |
| CNC(=O)c1cc(C2CC2)nc2onc(C3CCN(C(=O)N(C)C)CC3)c12 | inactive |
| COC[C@@H]1CN(S(=O)(=O)c2ccc(C(C)C)cc2)C[C@H]1c1ccccn1 | inconclusive: 56.2 µM [inhibitor, partial curve, poor fit] |
| O=C(Cc1cccc(Cl)c1)N1CCCC(C(=O)N2CCC(c3ccccc3)CC2)C1 (stereo not given) | inconclusive: 79.4 µM [inhibitor, partial curve, poor fit] |
| CCOc1ccc(C2NC(=O)N(CCC(C)C)C3=C2C(=O)OC3)cc1 (stereo not given) | inconclusive: 79.4 µM [inhibitor, single point] |
| CN(C)c1ccc(C(=O)NC2CCCN(c3cc(-c4ccc(F)cc4)[nH]n3)C2)cc1 (stereo not given) | active: 35.5 µM |
| O=C(c1ccccn1)N1CCCC2(COc3ccccc3[S+](=O)([O-])N2)C1 (stereo not given) | inactive |
| O=C(NCc1ccccn1)c1cn2cc(-c3cccc(C(F)(F)F)c3)sc2n1 | inconclusive: 89.1 µM [inhibitor, single point] |
| CCNC(=O)N1CCc2cc(OC)c(OC)cc2C1CNC(=O)c1ccccc1C (stereo not given) | inactive |
| CCn1cc(CN(C)CCc2c(C)nn(C)c2C)ccc1=O | inconclusive: 89.1 µM [inhibitor, single point] |
| OCC1CN(Cc2ccc(C(F)(F)F)cc2)CC12CCNCC2 (stereo not given) | inconclusive: 79.4 µM [inhibitor, partial curve, poor fit] |
| C[S+](=O)([O-])NC1CCN(c2nccc(Nc3ccccc3F)n2)CC1 | inconclusive: 100 µM [inhibitor, single point] |
| Cc1ccc(OCc2ccc(C(=O)N3C[C@H](C4CC4)[C@@H](N)C3)cc2)cc1 | inconclusive: 50.1 µM [inhibitor, partial curve, poor fit] |
| CC(=O)N1CCC(N2CCOC[C@H]2c2ncc(-c3cccnc3)[nH]2)CC1 | inactive |
| Cc1ccc(C2Cn3cnc(C(=O)N4CCC(C(=O)NC(C)c5ccccc5)CC4)c3CO2)cc1 (stereo not given) | inactive |
